Like-named read-outs stand apart in the source and are kept apart here. No constants are given. Whether binding was seen depends on the method and setting. Binding seen in cells or lysates may run through a third protein. Some results given as binding are weak or reduced against the parent protein; the word gives no strength. Where a sequence is shown, tags or fusion partners need not be part of it.
T1: PAM68-YFP^N (Arabidopsis thaliana) (UniProt O49668)
T1 sequence: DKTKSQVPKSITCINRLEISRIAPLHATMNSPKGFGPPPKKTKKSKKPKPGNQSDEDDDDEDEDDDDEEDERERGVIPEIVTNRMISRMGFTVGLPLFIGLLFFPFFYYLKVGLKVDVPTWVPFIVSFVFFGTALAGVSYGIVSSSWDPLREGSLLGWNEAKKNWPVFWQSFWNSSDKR

The chains behind the UniProt entries cited, without tags or fusion partners. Residues count along the entry.
UniProt Q9SYI0, residues 73-1022: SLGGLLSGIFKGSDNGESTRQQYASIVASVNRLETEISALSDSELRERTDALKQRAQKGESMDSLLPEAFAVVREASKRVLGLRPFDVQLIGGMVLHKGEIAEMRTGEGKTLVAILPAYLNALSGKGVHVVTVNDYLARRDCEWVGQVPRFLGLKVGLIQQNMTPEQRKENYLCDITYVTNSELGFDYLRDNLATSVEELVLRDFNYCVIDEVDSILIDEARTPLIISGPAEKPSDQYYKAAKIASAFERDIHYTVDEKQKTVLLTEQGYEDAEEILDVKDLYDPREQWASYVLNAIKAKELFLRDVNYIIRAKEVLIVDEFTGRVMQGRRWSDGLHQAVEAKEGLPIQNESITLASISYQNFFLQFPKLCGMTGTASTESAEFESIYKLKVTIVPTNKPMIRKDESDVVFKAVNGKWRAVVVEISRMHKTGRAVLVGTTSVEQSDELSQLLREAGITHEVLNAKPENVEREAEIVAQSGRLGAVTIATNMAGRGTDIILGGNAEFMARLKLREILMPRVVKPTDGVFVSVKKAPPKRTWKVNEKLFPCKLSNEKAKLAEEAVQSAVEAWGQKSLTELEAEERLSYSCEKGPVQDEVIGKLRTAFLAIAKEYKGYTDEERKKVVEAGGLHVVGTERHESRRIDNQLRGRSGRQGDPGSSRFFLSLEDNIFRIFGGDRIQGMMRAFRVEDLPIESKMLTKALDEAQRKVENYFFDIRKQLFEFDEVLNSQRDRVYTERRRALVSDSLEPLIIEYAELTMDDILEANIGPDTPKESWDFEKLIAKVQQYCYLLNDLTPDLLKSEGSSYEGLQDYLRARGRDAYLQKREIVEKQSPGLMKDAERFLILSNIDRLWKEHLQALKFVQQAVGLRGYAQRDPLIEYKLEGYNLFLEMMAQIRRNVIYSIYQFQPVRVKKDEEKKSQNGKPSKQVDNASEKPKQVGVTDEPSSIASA

T2: YCF4-YFP^N (UniProt P56788)
T2 sequence: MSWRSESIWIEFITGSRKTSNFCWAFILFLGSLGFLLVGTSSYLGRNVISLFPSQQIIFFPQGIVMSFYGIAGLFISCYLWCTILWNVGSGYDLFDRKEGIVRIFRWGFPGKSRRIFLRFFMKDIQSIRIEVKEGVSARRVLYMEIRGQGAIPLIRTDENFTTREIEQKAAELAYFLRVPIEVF


What was measured:
Assay in all cases: split reporter; BiFC with YFP^N and YFP^C fusions cotransformed into Arabidopsis protoplasts; confocal microscopy
[1] = target: T1, PAM68-YFP^N (Arabidopsis thaliana)
[2] = target: T1, PAM68-YFP^N (Arabidopsis thaliana); remark: listed apart in the source
YCF4-YFP^N = target: T2, YCF4-YFP^N

binding [2]	Molecule	other results
binds	LPA2-YFP^C (protein, UniProt F4KDA6 47-185) SKNSSSSGVGFGSPASSSSPAKKLSAATSGNKKGKGKREVNRRAPVEKPVFMSEEGAAKAEEQRQNENAFLLTWLGLGIVILIEGIILAASGFLPEELDKLFVKYVYPVFTPSVVLFVAGTTAYGVLKYIQNEKMKGQE	
binds	cpSRP54-YFP^C (protein, UniProt P37107 76-564) EMFGQLTGGLEAAWSKLKGEEVLTKDNIAEPMRDIRRALLEADVSLPVVRRFVQSVSDQAVGMGVIRGVKPDQQLVKIVHDELVKLMGGEVSELQFAKSGPTVILLAGLQGVGKTTVCAKLACYLKKQGKSCMLIAGDVYRPAAIDQLVILGEQVGVPVYTAGTDVKPADIAKQGLKEAKKNNVDVVIMDTAGRLQIDKGMMDELKDVKKFLNPTEVLLVVDAMTGQEAAALVTTFNVEIGITGAILTKLDGDSRGGAALSVKEVSGKPIKLVGRGERMEDLEPFYPDRMAGRILGMGDVLSFVEKATEVMRQEDAEDLQKKIMSAKFDFNDFLKQTRAVAKMGSMTRVLGMIPGMGKVSPAQIREAEKNLLVMEAMIEVMTPEERERPELLAESPERRKRIAKDSGKTEQQVSALVAQIFQMRVKMKNLMGVMEGGSIPALSGLEDALKAEQKAPPGTARRKRKADSRKKFVESASSKPGPRGFGSGN	

The remaining lines, values behind:

Molecule	binding [2]	other results
SecA1-YFP^C (from UniProt Q9SYI0 73-1022)		binding [1]: binds
LPA1-YFP^C (protein, UniProt Q9SRY4 93-453) DALVQFETALSLAPNPIESQAAYYNKACCHAYRGEGKKAVDCLRIALRDYNLKFATILNDPDLASFRALPEFKELQEEARLGGEDIGDNFRRDLKLISEVRAPFRGVRKFFYFAFAAAAGISMFFTVPRLVQAIRGGDGAPNLLETTGNAAINIGGIVVMVSLFLWENKKEEEQMVQITRDETLSRLPLRLSTNRVVELVQLRDTVRPVILAGKKETVTLAMQKADRFRTELLRRGVLLVPVVWGERKTPEIEKKGFGASSKAATSLPSIGEDFDTRAQSVVAQSKLKGEIRFKAETVSPGEWERWIRDQQISEGVNPGDDVYIILRLDGRVRRSGRGMPDWAEISKELPPMDDVLSKLER	binds	
FtsY-YFP^C (protein, UniProt O80842 41-366) CSAGPSGFFTRLGRLIKEKAKSDVEKVFSGFSKTRENLAVIDELLLFWNLAETDRVLDELEEALLVSDFGPKITVRIVERLREDIMSGKLKSGSEIKDALKESVLEMLAKKNSKTELQLGFRKPAVIMIVGVNGGGKTTSLGKLAHRLKNEGTKVLMAAGDTFRAAASDQLEIWAERTGCEIVVAEGDKAKAATVLSKAVKRGKEEGYDVVLCDTSGRLHTNYSLMEELIACKKAVGKIVSGAPNEILLVLDGNTGLNMLPQAREFNEVVGITGLILTKLDGSARGGCVVSVVEELGIPVKFIGVGEAVEDLQPFDPEAFVNAIFS	binds	
PAM68-YFP^C (protein, UniProt O49668 36-214) DKTKSQVPKSITCINRLEISRIAPLHATMNSPKGFGPPPKKTKKSKKPKPGNQSDEDDDDEDEDDDDEEDERERGVIPEIVTNRMISRMGFTVGLPLFIGLLFFPFFYYLKVGLKVDVPTWVPFIVSFVFFGTALAGVSYGIVSSSWDPLREGSLLGWNEAKKNWPVFWQSFWNSSDKR		binding (YCF4-YFP^N): no binding

— PMC11006888
